This is an account of results in patent US8273854B2, “GLP-1 analog fusion proteins” (Eli Lilly and Company, dated 2012).

To fix the notation:
B1: Gly^8-Glu^22-GLP-1(7-37)-1.5L-IgG4 (S228P, F234A, L235A) (Fc fusion)
chain: HGEGTFTSDVSSYLEEQAAKEFIAWLVKGRGGSGGGGSGGGGSGGGGSGGGGSA[letters of human IgG4 Fc with S228P F234A L235A (EU numbers) left out]
B2: Gly^8-Glu^22-Gly^36-GLP-1(7-37)-2L-IgG4 (S228P, F234A, L235A) (Fc fusion)
chain: HGEGTFTSDVSSYLEEQAAKEFIAWLVKGGGGGGGSGGGGSGGGGSGGGGSGGGGSGGGGSA[letters of human IgG4 Fc with S228P F234A L235A (EU numbers) left out]
B3: Gly^8-Glu^22-GLP-1(7-37)-2L-IgG4 (S228P, F234A, L235A) (Fc fusion)
chain: B2 chain with G30R
B4: Gly^8-Glu^22-GLP-1(7-37)-1L-IgG4 (S228P, F234A, L235A) (Fc fusion)
chain: HGEGTFTSDVSSYLEEQAAKEFIAWLVKGRGGGGGSGGGGSGGGGSA[letters of human IgG4 Fc with S228P F234A L235A (EU numbers) left out]
B5: Gly^8-Glu^22-Gly^36-GLP-1(7-37)-1L-IgG4 (S228P, F234A, L235A) (Fc fusion)
chain: B4 chain with R30G

Positions count from the first letter of the chain named. Names and notes keep the numbering of the source.

One experiment deals with T1, human GLP-1 receptor (human, UniProt P43220). In words: cell-based or functional assay.
Regarding B1, the “Activity (EC50 relative to Val^8-GLP-1(7-37)OH), CRE-BLAM beta-lactamase reporter” value came out at 314%.
Consider B2, for which the “Activity (EC50 relative to Val^8-GLP-1(7-37)OH), CRE-BLAM beta-lactamase reporter” value is 441%.
Still for that read-out and setting: next, B3: 301%; B4: 468%.

The target of another experiment is T1, human GLP-1 receptor. In words: cell-based or functional assay. The source holds these as a separate data set.
In the case of B1, the “Activity (EC50 relative to Val^8-GLP-1(7-37)OH), CRE-Luciferase reporter” value was 595%.
With B2, the “Activity (EC50 relative to Val^8-GLP-1(7-37)OH), CRE-Luciferase reporter” value was found to be 398%.
As for B3, the “Activity (EC50 relative to Val^8-GLP-1(7-37)OH), CRE-Luciferase reporter” value came to 535%.
Same read-out and setting: next, B4: 1120%; B5: 417%.
